Results reported in patent US20250018020A1 (ALTOR BIOSCIENCE, published 2025).

Biological target: IL-18/IL-15RαSu/Fc fusion protein (human)
Experiment: co-expression in CHO cells
From the text: The IL-18/IL-15RαSu/Fc and IL-12/IL-15N72D constructs were cloned into expression vectors as described previously (U.S. Pat. No. 8,507,222, at Example 1, incorporated herein by reference), and the expression vectors were transfected into CHO cells. Co-expression of the two constructs in CHO cells allowed for formation and secretion of the soluble IL-12/IL-15N72D:IL-18/IL-15RαSu/Fc fusion protein complex (referred to as hIL12/IL18/TxM), which can be purified by Protein A affinity and other chromatography methods.

B1: IL-12/IL-15N72D fusion protein (other)
chain: IWELKKDVYVVELDWYPDAPGEMVVLTCDTPEEDGITWTLDQSSEVLGSGKTLTIQVKEFGDAGQYTCHKGGEVLSHSLLLLHKKEDGIWSTDILKDQKEPKNKTFLRCEAKNYSGRFTCWWLTTISTDLTFSVKSSRGSSDPQGVTCGAATLSAERVRGDNKEYEYSVECQEDSACPAAEESLPIEVMVDAVHKLKYENYTSSFFIRDIIKPDPPKNLQLKPLKNSRQVEVSWEYPDTWSTPHSYFSLTFCVQVQGKSKREKKDRVFTDKTSATVICRKNASISVRAQDRYYSSSWSEWASVPCSGGGGSGGGGSGGGGSRNLPVATPDPGMFPCLHHSQNLLRAVSNMLQKARQTLEFYPCTSEEIDHEDITKDKTSTVEACLPLELTKNESCLNSRETSFITNGSCLASRKTSFMMALCLSSIYEDLKMYQVEFKTMNAKLLMDPKRQIFLDQNMLAVIDELMQALNFNSETVPQKSSLEEPDFYKTKIKLCILLHAFRIRAVTIDRVMSYLNAS[in this place about 120 residues]
notes: Secreted from CHO cells
binding result: binds
